Measured values taken from PubChem BioAssay AID686978 (National Center for Advancing Translational Sciences (NCATS), 2013).
Among all 420,000 compounds or so, about 64,000 (15%) were called active. Inconclusive means that the source gave no clear call. Such entries were picked first, then a sample of the others. The call rests on the fitted dose curve; in most records, active means well fitted inhibition curve with a large enough effect; inconclusive means small, poorly fitted or top-dose-only effect; inactive means flat fitted curve, though single readings scatter. No potency is given beside an inconclusive call; the fits are too rough.

Assay: qHTS for Inhibitors of human tyrosyl-DNA phosphodiesterase 1 (TDP1): qHTS in cells in absence of CPT; further: nearly all actives have a fitted effect of over 55% in size
Details: DT40 Tdp1-/- hTDP1 cells, no CPT, ATP luminescence, 48 h; series mostly up to 46.2 µM
Method in brief: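 Camptothecin absent (DMSO only). Human TDP1-complemented DT40 knockout cells, 400 cells/well, 37 °C for minimum 48 hr; ATP measured via CellTiter-Glo, 30 min dark incubation, luminescence.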
Potency means the concentration at half of the fitted maximal effect; tags describe the fitted curve by direction and shape.

Row | SMILES | Potency
1 | COC(=O)c1ccc(COc2cccc3c2CCN(Cc2cccc(C)c2)C3=O)o1 | inconclusive [inhibitor, single point]
2 | Cc1ccc(NC(=O)CCC(=O)NNC(=O)COc2ccc([N+](=O)[O-])cc2)c(C)c1 | inactive
3 | CC(=O)N1CCN(c2ccccc2NC(=O)c2cc(Br)ccc2Cl)CC1 | inconclusive [inhibitor, single point]
4 | CC1CCc2onc(C(=O)N3CCN(c4ccc(F)cc4)CC3)c2C1 (stereo not given) | inconclusive [inhibitor, single point]
5 | CCCOc1ccc(-c2cn3ccccc3n2)cc1 | inconclusive [inhibitor, partial curve]
6 | COCCCN1C(=O)C(CC(=O)NCc2cccs2)CC(C(=O)N2CCCCCC2)=C1C (stereo not given) | inactive
7 | O=C(CC1SC(N2CCCCC2)=NC1=O)Nc1cccc(C(=O)NCc2ccc(F)cc2)c1 (stereo not given) | inconclusive [inhibitor, partial curve, poor fit]
8 | O=c1nc2ccccc2c2n1CC(CN1CCN(c3ccccc3F)CC1)N2 (stereo not given) | active: 13 µM
9 | CCN(CC(=O)NCc1ccc(F)cc1)C(=O)CN1CCN(c2cc(Cl)ccc2C)CC1 | inconclusive [inhibitor, single point]
10 | Cc1ccsc1/C=N/NC(=O)Cn1nc(C)c([N+](=O)[O-])c1C | inconclusive [inhibitor, single point]
11 | O=C(CN1C(=O)NC2(CCCc3ccccc32)C1=O)NCc1cccs1 (stereo not given) | inactive
12 | O=C1CCc2cc(S(=O)(=O)N3CCCC3C(=O)NC3CCCCCCC3)ccc2N1 (stereo not given) | inconclusive [inhibitor, partial curve]
13 | CCCNC(=S)N1CCC(C(=O)c2ccc(F)cc2)CC1 | active: 16.4 µM
14 | CSc1ccc(CCNC(=O)CCc2nnc3ccc(N4CCCC4)nn23)cc1 | inconclusive [inhibitor, single point]
15 | Cc1sc2nc(C3CC3)nc(SCC(=O)NCc3ccco3)c2c1C | inconclusive [inhibitor, single point]
16 | COCCCNc1ccnc2c(Cl)cccc12 | inconclusive [inhibitor, single point]
17 | COc1ccc(-c2cc(C(=O)N(C)Cc3ccc(OC)c(OC)c3OC)c3ccccc3n2)cc1OC | active: 18.4 µM
18 | CCCN(CCC)C(=O)c1cc(-c2ccc3c(c2)OCO3)nc2ccccc12 | active: 14.6 µM
19 | Cc1ccc(CNC(=O)C(C)OC(=O)c2cccs2)cc1 (stereo not given) | inactive
20 | C=CCN1C(=O)C(CC(=O)O)S/C1=N/N=C/c1ccc(N(CC)CC)cc1 (stereo not given) | inconclusive [inhibitor, single point]
21 | Cc1nc(Cc2nnc(SCC(=O)N3c4ccccc4NC(=O)C3(C)C)o2)cs1 | active: 16.4 µM
22 | CCC(CC)c1nnc(NC(=O)c2ccc(N3CCCC3=O)cc2)s1 | inactive
23 | COc1ccc(-c2cc(C(=O)Nc3c(F)cc(F)cc3Br)no2)cc1 | inconclusive [inhibitor, partial curve, poor fit]

Row | SMILES | Potency
24 | O=[N+]([O-])c1ccc2nc(-c3ccncc3)[nH]c2c1 | inconclusive [inhibitor, single point]
25 | COc1ccc(-n2c(=O)c(-c3cccs3)nc3cnc(OC)nc32)cc1 | inconclusive [inhibitor, full curve, poor fit]
26 | COc1ccc(CCC(=O)Nc2ccc(Br)cn2)cc1 | inconclusive [inhibitor, single point]
27 | COc1cc2ccccc2cc1C(=O)N1CCCCC1 | inactive
28 | CN(C(=O)c1cccc(NC(=O)Cc2cccc(NC(=O)C3CCCN(C(=O)c4ccccc4)C3)c2)c1)C1CC1 (stereo not given) | inconclusive [inhibitor, partial curve]
29 | CN(C)c1ccc(/C=N\Nc2ccc([N+](=O)[O-])cc2[N+](=O)[O-])cc1Br | inconclusive [inhibitor, partial curve]
30 | O=C1c2ccccc2C(=O)C1c1ccnc2ccccc12 | active: 13 µM
31 | C/C(Cl)=C/CSc1nn2c(=O)c3ccccc3nc2s1 | inconclusive [inhibitor, partial curve]
32 | CC(/C=N/NC(=O)c1c(Br)cnn1C)=C\c1ccccc1 | inconclusive [inhibitor, single point]
33 | COc1ccc(OC)c(NC(=O)c2cnc(Nc3ccc(C)c(Cl)c3)c3ccccc23)c1 | inconclusive [inhibitor, single point]
34 | O=C(CN1CCC(n2nnc3ccccc32)CC1)Nc1ccc2c(c1)CCC2 | inconclusive [inhibitor, single point]
35 | Cc1ccc(C(=O)Nc2ccccc2Sc2ccccc2)cc1 | inactive
36 | Cc1cc(OCC(=O)OCC(=O)N(C)c2c(N)n(Cc3ccccc3)c(=O)[nH]c2=O)ccc1Cl | inactive
37 | CC(C)(C)C(=O)CN1C(=O)NC(C)(Cc2ccc3c(c2)OCO3)C1=O (stereo not given) | inactive
38 | Nc1nc(-c2ccccc2)cc(-c2ccccc2)n1 | inconclusive [inhibitor, single point]
39 | COc1ccc(C(NC(=O)c2ccccc2F)NC(=O)c2ccccc2F)cc1 | inactive
40 | CCCCn1nc(C(=O)N(CC)CC(=O)Nc2c(F)cccc2F)c2ccccc2c1=O | inconclusive [inhibitor, partial curve, poor fit]
41 | CC(C)CNC(=O)c1cccc(NC(=O)Cc2ccc(Cl)cc2)c1 | inconclusive [inhibitor, partial curve, poor fit]
42 | Cc1cc(N2CCN(c3ccccc3F)CC2)nc2cc(O)ccc12 | inconclusive [inhibitor, single point]
43 | COc1ccc(C(=O)NCc2cc(C)nc3ccccc23)cc1OC | inconclusive [inhibitor, single point]
44 | COc1cccc(Nc2nc(C(N)Cc3ccccc3)cs2)n1 (stereo not given) | active: 16.4 µM
45 | Nc1nc(C23CC4CCC(CC(C4)C2)C3)cs1 | inconclusive [inhibitor, single point]
